From the supplement of paper PMC11417369
Some of the results follow.

The sequences below were run on PfAP2-HC AP2 domain (GST-tagged) (assay: gcPBM binding intensity (ln(normalized median fluorescence intensity)); higher = stronger DNA binding).
How it was run: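 After 1 h on an Agilent 4 × 180k array of primer-extended double-stranded 36-bp intergenic genomic probes and negative controls, bound GST-tagged P. falciparum DNA-binding domains were detected with Alexa488 anti-GST antibody and scanned at 488 nm. The domains had been expressed in E. coli, and binding took place in 1× PBS with 1% milk, 0.2 mg/ml BSA, 0.5% salmon testes DNA and 0.03% Triton X-100. Binding intensity is the highest Masliner-normalised natural-log median intensity across replicate spots of either probe orientation.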

Sequence	gcPBM binding intensity (ln)
ATAGGGAATTTATGCACACAGTTAAGGGGGAAAATT [CACACA_site5183]	9.84
TATAAGATTATACAAAGTACATATAAATAATATATT [XGTACX_site1917]	9.41
ATATATATATAAATATGTACATATATATATTATATA [XGTACX_site120]	9.8
TTAAAAAAAGATTATACACACACATATATAAACATA [CACACA_site8136]	10.6
TCCTCTTTTATTTTTACACACGCGTAAACATATATA [CACACA_site667]	10
TGAAATAAAAAATATAGTACTCGTTCGTAACCAAAA [XGTACX_site413]	9.71
ATGGGTTAAAAATGCACACAAAAAAATATACAGATA [CACACA_site4321]	10
TGTATTAATAAAAATACACACATCATATTATAGAAA [CACACA_site7629]	9.8
ATATATAAGGATGTCACACATAAATATTAACACTAA [CACACA_site5101]	9.73
TTCAATTTTTTATGAACACACAAAAAAAAAAAAAAA [CACACA_site2533]	9.23
ACATAATTAACAAATACACACACACCCACCCACAAA [CACACA_site8069]	10.7
TTATATTATTTTTATACATGCATTTCTATATATTTT [TGCATGCA_site164]	9.86
AAGAAAAAATATATATATATATATATATATAATATG [TGCATGCA_negctrl_site417]	9.58
ATTTGTGATTTGTGTGTGCACGTATTTACAGAACAA [GTGCAC_site9498]	10.1
ATATAAATTATTTACACACAAACATTTATACTTTTA [CACACA_site3448]	9.86
TTTTGTTACGGCAAGGAAGTTAAGCATAAATGAATG [GTGCAC_negctrl_site173]	9.45
CAGGCGTGAAATATACGTACACACATTATTTATATT [XGTACX_site5337]	9.94
ATATATCTACTGTGTTGTACTGTTAATATTTGAATA [XGTACX_site1931]	9.78
ATATAAGTGTATCTAACACACAAATATGTAAAAATG [CACACA_site7006]	10.2

Sequence	gcPBM binding intensity (ln)
TATATACACATATATACACACACATATATATATATA [CACACA_site9127]	10.2
ATATTTTTTGCTATTACACACAAGGGATTATTATTT [CACACA_site7776]	9.92
AAGAAAAAAAATATATATGTATATATTATTTTAACA [TGCATGCA_negctrl_site534]	9.54
TAATAATAGTCTAATACATGCATCGATAACGGAACT [TGCATGCA_site98]	9.58
ATGTTAATAACTTGTGGTACTGTTATAATTTAGTAA [XGTACX_site2114]	9.63
TTTTTATTTTTAAAGGCACACACATTTTTATTTTTA [CACACA_site8624]	9.97
AATAAATAAATAATATAATGAAATTATAAAATGTGG [TGCATGCA_negctrl_site385]	9.84
AAATGAAATTTGTATACACACAAATATATTTATATA [CACACA_site6525]	9.78
TATTTGTGCCAAAAATGAAAAAGTTTGTATAAAACC [CACACA_negctrl_site1406]	9.49
AAAATTACTATATGAACACACATGATTAGATATATG [CACACA_site3083]	9.87
TATATATATATATACACACACACCCTAAAAATATAT [CACACA_site1611]	10.4
TGAAAGAATTAATTTTGTACATATAAAAATTTTATT [XGTACX_site8500]	9.49
AAAAAAAAAAAATATACACACACATATATATATATA [CACACA_site9123]	10.3
AACAACAATTTCGTCATACACACATTCAGAATATAT [CACACA_site2371]	9.85
AATGATCATAAATACACACACACAAAAAAAAAAAAA [CACACA_site6072]	10.3
TATTAAAAAAATGTATGTACATATATAAATTTTTTT [XGTACX_site1094]	9.52
GATGGATTTATTTAAAGTACATATTTAAAAAACTGT [XGTACX_site7567]	9.46
TTTCTCCCATTTTTTAGTACACAAAATATATATGTA [XGTACX_site7218]	9.66
AAAGTAAAAGAAAGCACACACACATGTATATATGTA [CACACA_site3857]	10.2

Sequence	gcPBM binding intensity (ln)
TTTTAAAAATTAAGTGCATGTCCTTATAAAAAAAAA [TGCATGCA_site845]	9.34
TTCATATATTTAGGACGTACTTTTATATTACTATAT [XGTACX_site6456]	9.8
AATTTTTTTTTAATCATGCACACTGTTAAAAGAATA [CACACA_site1240]	9.43
AAAAAATAGAATATAAAAATAAAGGAATTAAATTAA [XGTACX_negctrl_site420]	9.69
TATATATAAATATATGTGCACTTTTTATATTTATAT	9.7
ATATGGAATAATACGCGTACACACATATATATATTA [XGTACX_site307]	9.9
TTTATATCATTACAAGTGCATATCATCATAAATTCT [GTGCAC_site9878]	9.59
TCTTGATTATATAGTACTACACATTATAAAAAAATT [XGTACX_site2465]	9.57
TGTTATTATAACATTTTTTTCAAAATAGCTTTAGAA [CACACA_negctrl_site266]	9.06
ATAATACCCAAGCACACACACACACCGATATATATA [CACACA_site8344]	11.3
AATTTATAAGAATAAAGTACTAAAGATACAACTTTA [XGTACX_site7153]	9.52
ATTAAAGGAAGCAAAACATGCAACAGCAATATTGCA [TGCATGCA_site452]	9.6
ATTTTTTTTTTTTTTTTGGGGGGGTATACTTTTAAA [CACACA_negctrl_site1020]	10.7
TTCCTTTTTTTTTATTGTACAAAAATATCAAAAAGG [XGTACX_site8505]	9.18
AATTATATAACAAATTGTACGAATGAAAATATTATT [XGTACX_site4237]	9.72
ATAGAATAAATTTTGTCATTTATTCCTTATATATAA [GTGCAC_negctrl_site227]	9.56
TAAAAATAGGAATACGCACACGATGATTAATTTATA [CACACA_site1835]	9.83
TATAATGAGGATGATAGTACGTATTAGTATAAAAAA [XGTACX_site6623]	9.78
